Assay results published in paper PMC10516938, “Conformational dynamics of cohesin/Scc2 loading complex are regulated by Smc3 acetylation and ATP binding” (Nature Communications, 2023).
Positions count from the first letter of the chain named. Numbers in names are those of the source. These are yes or no findings as the source states them, for the method shown. In cells and extracts the contact can be indirect. Some entries that bind do so weakly or less than the wild type. One block for each binder: values may come before it.

Columns and labels:
[1] = target: T1, Smc1 E1102C (S. cerevisiae) (UniProt P32908); test: cross-linking; in vivo BMOE cross-link of cysteine pairs in exponentially grown yeast cells (on ice, 6 min); Scc1-PK immunoprecipitated, western blot
T1 sequence: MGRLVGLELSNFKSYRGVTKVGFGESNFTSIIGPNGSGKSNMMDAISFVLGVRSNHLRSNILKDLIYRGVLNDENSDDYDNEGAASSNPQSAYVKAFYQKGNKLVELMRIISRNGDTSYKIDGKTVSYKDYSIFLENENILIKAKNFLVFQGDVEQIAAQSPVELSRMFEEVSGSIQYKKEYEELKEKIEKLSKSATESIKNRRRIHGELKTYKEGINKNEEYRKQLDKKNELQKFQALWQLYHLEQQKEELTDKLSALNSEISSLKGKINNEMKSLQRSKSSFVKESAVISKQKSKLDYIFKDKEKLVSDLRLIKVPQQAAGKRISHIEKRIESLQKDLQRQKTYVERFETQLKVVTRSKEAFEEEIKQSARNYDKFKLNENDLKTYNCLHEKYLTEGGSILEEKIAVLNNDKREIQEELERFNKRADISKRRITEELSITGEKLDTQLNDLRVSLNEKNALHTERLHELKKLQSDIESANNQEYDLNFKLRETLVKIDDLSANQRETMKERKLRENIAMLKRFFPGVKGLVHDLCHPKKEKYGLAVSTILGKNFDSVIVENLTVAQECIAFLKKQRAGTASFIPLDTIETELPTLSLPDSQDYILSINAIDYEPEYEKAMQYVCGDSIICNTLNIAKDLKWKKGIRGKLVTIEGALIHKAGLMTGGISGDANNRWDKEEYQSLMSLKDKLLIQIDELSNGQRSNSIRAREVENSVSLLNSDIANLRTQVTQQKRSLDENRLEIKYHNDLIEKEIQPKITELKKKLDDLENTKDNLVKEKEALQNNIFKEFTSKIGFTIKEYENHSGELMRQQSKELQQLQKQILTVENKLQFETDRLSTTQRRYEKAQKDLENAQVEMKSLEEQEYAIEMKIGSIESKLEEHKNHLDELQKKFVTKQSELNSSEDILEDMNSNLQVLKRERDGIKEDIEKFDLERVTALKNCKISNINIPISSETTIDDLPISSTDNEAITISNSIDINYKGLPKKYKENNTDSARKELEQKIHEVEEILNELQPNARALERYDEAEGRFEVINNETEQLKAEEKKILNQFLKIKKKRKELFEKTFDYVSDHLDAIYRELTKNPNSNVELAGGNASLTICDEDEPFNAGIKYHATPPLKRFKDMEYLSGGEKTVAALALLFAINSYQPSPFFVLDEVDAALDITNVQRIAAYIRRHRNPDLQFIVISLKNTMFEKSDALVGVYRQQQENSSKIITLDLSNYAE

[2] = target: T2, Smc3^QQ-PK (S. cerevisiae) (UniProt P47037); test: co-IP; Smc3-PK or Smc3^QQ-PK immunoprecipitated with anti-PK from whole-cell extracts of BMOE-treated late G1 arrested cells; Smc1 (anti-MYC) and Scc2 (anti-FLAG) detected
T2 sequence: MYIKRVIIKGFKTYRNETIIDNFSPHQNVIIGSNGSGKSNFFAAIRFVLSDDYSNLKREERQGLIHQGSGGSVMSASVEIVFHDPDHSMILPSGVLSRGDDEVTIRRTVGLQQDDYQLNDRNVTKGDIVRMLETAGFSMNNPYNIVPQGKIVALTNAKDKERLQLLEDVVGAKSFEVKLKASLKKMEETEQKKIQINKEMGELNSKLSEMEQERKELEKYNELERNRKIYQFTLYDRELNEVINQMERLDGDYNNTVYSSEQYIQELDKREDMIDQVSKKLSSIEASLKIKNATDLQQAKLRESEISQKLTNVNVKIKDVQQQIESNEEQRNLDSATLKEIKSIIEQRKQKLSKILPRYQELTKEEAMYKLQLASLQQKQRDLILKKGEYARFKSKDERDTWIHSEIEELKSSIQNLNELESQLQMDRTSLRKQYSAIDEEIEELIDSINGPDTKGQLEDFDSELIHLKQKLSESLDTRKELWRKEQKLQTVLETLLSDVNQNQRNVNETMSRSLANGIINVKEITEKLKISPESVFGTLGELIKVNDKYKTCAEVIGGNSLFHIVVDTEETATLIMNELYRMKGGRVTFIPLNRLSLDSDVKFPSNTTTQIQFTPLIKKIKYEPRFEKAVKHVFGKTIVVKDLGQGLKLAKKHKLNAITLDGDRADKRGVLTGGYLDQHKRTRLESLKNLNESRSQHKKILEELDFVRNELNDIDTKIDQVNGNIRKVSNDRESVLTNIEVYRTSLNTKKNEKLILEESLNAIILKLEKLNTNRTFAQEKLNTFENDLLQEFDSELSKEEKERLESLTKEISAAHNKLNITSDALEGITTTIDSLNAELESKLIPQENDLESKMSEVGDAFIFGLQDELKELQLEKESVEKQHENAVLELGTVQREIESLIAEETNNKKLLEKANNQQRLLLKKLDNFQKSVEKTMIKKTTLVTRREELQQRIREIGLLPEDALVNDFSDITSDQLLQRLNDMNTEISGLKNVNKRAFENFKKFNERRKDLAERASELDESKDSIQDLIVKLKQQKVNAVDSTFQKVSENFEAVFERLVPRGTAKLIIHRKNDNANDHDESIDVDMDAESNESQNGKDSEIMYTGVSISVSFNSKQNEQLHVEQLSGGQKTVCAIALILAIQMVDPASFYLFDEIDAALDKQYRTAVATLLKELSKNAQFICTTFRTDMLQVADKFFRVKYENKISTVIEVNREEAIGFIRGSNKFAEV

binding [1]: binds
binding [2]: binds
B1: Scc2 T1281C (protein, UniProt Q04002 1-1493)
chain: MSYPGKDKNIPGRIIEALEDLPLSYLVPKDGLAALVNAPMRVSLPFDKTIFTSADDGRDVNINVLGTANSTTSSIKNEAEKERLVFKRPSNFTSSANSVDYVPTNFLEGLSPLAQSVLSTHKGLNDSINIEKKSEIVSRPEAKHKLESVTSNAGNLSFNDNSSNKKTKTSTGVTMTQANLAEQYLNDLKNILDIVGFDQNSAEIGNIEYWLQLPNKKFVLTTNCLTKLQMTIKNITDNPQLSNSIEITWLLRLLDVMVCNIKFSKSSLKMGLDDSMLRYIALLSTIVLFNIFLLGKNDSNLHRESYIMEPVNFLSDLIESLKILTIEYGSLKIEFDTFQEALELLPKYIRNGPFLDDNVTAKLVYIFSDLLMNNDIEATTNIQFQSFWDNVKRISSDILVSLFGSFDQQRGFIIEELLSHIEKLPTKRIQKKLRKVGNQNIYITDFTFTLMSMLENINCYSFCNQMKDIAPENIDLLKNEYKKQEEFLFNIVEHINDTILERFFKNPSALRYVIDNFVQDLLLLISSPQWPVTEKILSSLLKRLLSVYSPSMQVSANIETICLQLIGNIGSTIFDIKCSTRDHEDNNLIKMINYPETLPHFFKSFEECIAYNETIKCRRSATRFLWNLRLGTILILEEYTKDAKEQIITVDNELKKILEQIKDGGLGPELENREADFSTIKLDYFSILHAFELLNLYDPYLKLILSLLAKDKIKLRSTAIKCLSMLASKDKVILSNPMVKETIHRRLNDSSASVKDAILDLVSINSSYFEFYQQINNNYNDDSIMVRKHVLRINEKMYDETNDIVTKVYVIARILMKIEDEEDNIIDMARLILLNRWILKVHEVLDQPEKLKEISSSVLLVMSRVAIMNEKCSQLFDLFLNFYLLNKEAHSKEAYDKITHVLTILTDFLVQKIVELNSDDTNEKNSIVDKQNFLNLLAKFADSTVSFLTKDHITALYPYMVSDEKSDFHYYILQVFRCTFEKLANFKQKFLYDLETTLLSRLPKMNVREIDEAMPLIWSVATHRHDTARVAKACSSCLSHLHPYINKANNEEAAIVVDGKLQRLIYLSTGFARFCFPKPSNDKIAFLQEGETLYEHITKCLLVLSKDKITHVIRRVAVKNLTKLCGNHPKLFNSRHVLHLLDKEFQSDQLDIKLVILESLYDLFLLEERKSVRNTGVNSTLSSNSILKKKLLKTNRVEFANDGVCSALATRFLDNILQLCLLRDLKNSLVAIRLLKLILKFGYTNPSHSIPTVIALFASTSQYIRHVAYELLEDLFEKYECLVFSSLSRGVTKAIHYSIHTDEKYYYKHDHFLSLLEKLCGTGKKNGPKFFKVLKRIMQSYLDDITDLTSTNSSVQKSIFVLCTNISNITFVSQYDLVSLLKTIDLTTDRLKEVIMDEIGDNVSSLSVSEEKLSGIILIQLSLQDLGTYLLHLYGLRDDVLLLDIVEESELKNKQLPAKKPDISKFSAQLENIEQYSSNGKLLTYFRKHVKDT

binding [1]: no binding
B2: Scc2 T1175C (natural protein, S. cerevisiae, UniProt Q04002 1-1493, looked up)
chain: B1 chain with T1175C, C1281T
notes: Scc2, S. cerevisiae; source: S. cerevisiae W303, in vivo, whole-cell extract
